These results are taken from the supplement of paper PMC11417369.

± gives the standard deviation of the averaged measurements. This is one part of the list.

The subject of the test is PfAP2-I AP2 domain 3 (GST-tagged). Nature of the test: gcPBM binding intensity (ln(normalized median fluorescence intensity)); higher = stronger DNA binding. The gist of the method: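 The highest Masliner-normalised natural-log median intensity across replicate spots of either probe orientation is reported as binding intensity. GST-tagged P. falciparum DNA-binding domains expressed in E. coli were applied for 1 h to an Agilent 4 × 180k array of primer-extended double-stranded 36-bp intergenic genomic probes plus negative controls, and bound protein was detected with Alexa488 anti-GST antibody and scanned at 488 nm.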
“TTTAAACCTTAATATTGTACGCAAAAAAAAAAAGAA [XGTACX_site3757]”: the “gcPBM binding intensity (ln)” value turned out to be 8.12 ± 0.45.
In the case of “TTTATGTAGGAACTAACACACATTGTAAGATTCAGA [CACACA_site1998]” it was 7.53 ± 0.56; in that of “GGAACTTTTGGAGGTGCATGCGGAGCAATCTTTTCA [TGCATGCA_site454]”, 8.36 ± 0.32; in that of “TTATTAATTTATAAATGTACGAATTTTTTATTTAAC [XGTACX_site7605]”, 7.7 ± 0.42.
In the case of “CATATCAATAATATCACACATATATGTGATTTTATT [CACACA_site5053]” it was 7.45 ± 0.54.
Then “CCCCTTAATTAAAGGAGTACTATTTGTGAATAATAT [XGTACX_site4715]”, with 8.62 ± 0.19.
For the sequence “TTTTTTTTTTATTTTGCACACTTCTAATTTAGTTGT [CACACA_site3429]”, the “gcPBM binding intensity (ln)” value was determined as 10.2 ± 0.16.
On to “AAAAAAGTAAAAAGTGCATGTAAAATATAAGTATCT [TGCATGCA_site55]”, for which the “gcPBM binding intensity (ln)” value was determined as 9.05 ± 0.3.
In the case of “GTTATTCTTAATTTTTGTACACATTTTTATATTATT [XGTACX_site7227]” it was 8.35 ± 0.4; in that of “AAAAAAATTAAACACACACACACATATATATATATA [CACACA_site4718]”, 9.53 ± 0.18; in that of “GAACAAAAGGAATGTTGTACATAAAAAATGAAAAAT [XGTACX_site3929]”, 8.03 ± 0.52.
Then “ATATATATGTATATGTGTACTTATATTTGTCATTTT [XGTACX_site1317]”, with 7.87 ± 0.6; and TCCTGCCTCTCTTTGGTGCGTTGTAACCCTCGAGGA, with 10.3 ± 0.11.
On to “AAAATTTAATATAATGCACACATAAAAAAAAATTCA [CACACA_site8640]”, for which the “gcPBM binding intensity (ln)” value was found to be 10.9 ± 0.92.
Take “TAAATTATTTATAAAGCACACAAGAAAAAATAAAAT [CACACA_site2132]”: the “gcPBM binding intensity (ln)” value turned out to be 9.96 ± 0.52.
Then “ATATTAATATACATATGTACATATATATATATATAT [XGTACX_site7425]”, with 9.31 ± 0.37.
“TAAAGGCAAACAAACACACACACATATATACATATA [CACACA_site2123]”: the “gcPBM binding intensity (ln)” value was 7.82 ± 0.26.
Consider “AAAAATTAACAAAAGGTGCAAACAAATAGTGGTTTT [GTGCAC_site9998]”, for which the “gcPBM binding intensity (ln)” value was determined as 10.7 ± 0.11.
Then “CCAATACTGTTTAAATGTACAAGTAGGAGGTTAATT [XGTACX_site7260]”, with 7.84 ± 0.67; and “AAATTGTAGAAGCGTATTTCTCGAACTGGATGAATA [CACACA_negctrl_site1373]”, with 7.61 ± 0.52; and “AATTAATGGAAACAAGTCAAATGATCTTTATGCATA [TGCATGCA_negctrl_site540]”, with 8.04 ± 0.16.
On to TAAAGTGTAAAGAAGGTGCTCATTATTTATTTTTTT, for which the “gcPBM binding intensity (ln)” value amounted to 8.4 ± 0.31.
In the case of “TTTATATCGACTCTTCTTTATATAAGTTGTGATGTT [TGCATGCA_negctrl_site362]” it was 7.53 ± 0.28; in that of “ATATGATATATTTTATGTACATATAAAACATATATA [XGTACX_site4297]”, 7.62 ± 0.35.
In the case of “TTATACTTTTTTTCTTGGTGTAGAAAAAAAAGTTAG [CACACA_negctrl_site1207]” it was 7.86 ± 0.33; in that of “TTTATATTAGGTCTTGAACGATTTTCATCATTATTA [TGCATGCA_negctrl_site100]”, 7.3 ± 0.64.
In the case of “AAAAAAGAAACAAACACACATACATACAAACAAACA [CACACA_site142]” it was 8.18 ± 0.26; in that of “AGTTTCCTTGAGAAAAGTACGTAATACTACATATAT [XGTACX_site818]”, 7.63 ± 0.47; in that of “TTTAAAAGATAAAGACTGCACTTTAAGCACACAAAT [GTGCAC_site9752]”, 9.86 ± 0.15.
Regarding “AATAAATATATAAATACACACAAACATACAGATATA [CACACA_site6088]”, the “gcPBM binding intensity (ln)” value turned out to be 7.79 ± 0.64.
Then “AATTCCTATAATGAGAGTACGCATTAGAACAGTAGG [XGTACX_site5721]”, with 8.03 ± 0.5; and “TTGATAAAAAAAAAAAAATAAAAAAAAAATAAAAAA [XGTACX_negctrl_site480]”, with 7.6 ± 0.35; and “GATGTGATGTATTTGGTATTTTTCGATGTTGGTAGG [CACACA_negctrl_site355]”, with 7.92 ± 0.42.
Then “TATTATATATCAAAATGTACATTAATTTGAGTAATT [XGTACX_site5434]”, with 7.5 ± 0.49; and “TTACCTCTTTGAAATATACACACTAATCATATCAAC [CACACA_site8778]”, with 7.88 ± 0.45.
In the case of “TTTTTGCTATTCTATTATATATATAATATATTTTAC [CACACA_negctrl_site262]” it was 8.02 ± 0.66; in that of “TGTTCAGTAGGGCACACACACAACAAAATAAAAAAA [CACACA_site378]”, 8.79 ± 0.16.
On to “GAGATTTATTTATGTGCACACTAGAACAATTGGATC [CACACA_site2090]”, for which the “gcPBM binding intensity (ln)” value was 9.99 ± 0.42.
Then “CTTTTTTCAAAACACACACACAAGAAAATATATATA [CACACA_site3109]”, with 8.1 ± 0.49.
In the case of “TTTTTTTTTTTTGTGCGTACATACCATTTTAATAAT [XGTACX_site2760]” it was 8.64 ± 0.8.
For the sequence “TATAATAAAATATGTACACACATACACCCATATATA [CACACA_site4808]”, the “gcPBM binding intensity (ln)” value came out at 7.84 ± 0.33.
Take “ACAAGTAATTAAGAGTGTACATAACTATAAATCCAA [XGTACX_site5215]”: the “gcPBM binding intensity (ln)” value is 7.88 ± 0.35.
As to “TGTATGTATGTATTATTTGTTATTTTAATTTTTTTG [TGCATGCA_negctrl_site256]”, the “gcPBM binding intensity (ln)” value is 8.46 ± 0.91.
Regarding “GATATGATGAGATTGATATTCATAAGAGGATTAATG [GTGCAC_negctrl_site515]”, the “gcPBM binding intensity (ln)” value is 7.61 ± 0.47.
